Source: PubChem BioAssay AID1159614 (National Center for Advancing Translational Sciences (NCATS), 2016)
The whole screen tested about 45,000 compounds, of which about 65 (0.1%) were called active. Calls come from the whole dose curve; as a rule, active = well fitted activation curve with a large enough effect; inconclusive = small, poorly fitted or top-dose-only effect; inactive = no such curve, though single readings can be large or run the other way. This is one part of the list.

molecular target: Galactocerebrosidase (Homo sapiens) (UniProt P54803); test: A Novel Cell-Based Assay to Identify Small Molecules for B -Galactocerebrosidase; conditions: 145M-Twi-hGALC-G270D cells (Twitcher mouse brain line with human GALC G270D), HMU-beta-Gal fluorescence, 48 h; series mostly up to 57.5 µM; activation: at the top concentration; note: 0% is about no effect; nearly all actives have a fitted effect of over 65% in size
Outline: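 Live 145M-Twi cells (Twitcher mouse brain-derived, GALC-null) stably expressing human GALC-G270D, with a wild-type GALC line, were compound-treated. Residual GALC activity was then read as fluorescence from 0.1 mM final HMU-β-gal at pH 5.2; higher signal means activation.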

Chain of UniProt P54803 (P54803 whole entry, looked up): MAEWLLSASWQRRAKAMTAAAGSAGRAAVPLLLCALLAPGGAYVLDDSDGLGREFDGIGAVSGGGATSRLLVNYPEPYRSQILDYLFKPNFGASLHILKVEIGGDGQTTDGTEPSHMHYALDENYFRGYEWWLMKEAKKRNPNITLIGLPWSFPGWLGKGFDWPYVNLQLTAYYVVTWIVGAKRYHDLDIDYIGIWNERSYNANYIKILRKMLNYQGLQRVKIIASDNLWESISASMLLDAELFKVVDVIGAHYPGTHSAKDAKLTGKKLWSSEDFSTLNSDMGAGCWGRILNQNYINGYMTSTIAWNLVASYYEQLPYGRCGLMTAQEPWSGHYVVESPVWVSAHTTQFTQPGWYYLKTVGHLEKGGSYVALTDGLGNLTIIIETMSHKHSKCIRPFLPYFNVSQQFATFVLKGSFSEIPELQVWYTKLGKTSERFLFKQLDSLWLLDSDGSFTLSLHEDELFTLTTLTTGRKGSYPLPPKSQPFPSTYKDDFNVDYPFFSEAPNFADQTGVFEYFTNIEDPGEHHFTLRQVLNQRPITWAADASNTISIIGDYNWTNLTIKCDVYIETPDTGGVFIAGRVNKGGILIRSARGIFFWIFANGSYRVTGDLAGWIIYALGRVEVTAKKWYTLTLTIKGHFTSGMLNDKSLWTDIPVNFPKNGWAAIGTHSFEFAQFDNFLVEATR

activation, inactive:
Cc1ccc(NC(=O)Nc2nnc(N3CCCC3)s2)cc1 -11.2%, Cn1cnc(S(=O)(=O)N2CCC(C(=O)NCc3ccccc3Cl)CC2)c1 -12.7%, CCN(c1ccccc1)c1nnc(NC(=O)Nc2ccc(Br)cc2)s1 -10.3%, C[C@@]12C(=O)OC(=O)[C@]1(C)C1CCC2O1 -8.7%, CCOc1ccc(CCNc2ncnc3onc(-c4ccc(Cl)cc4)c23)cc1OCC 6.39%, CCc1ccc(OC(C)c2nc(-c3ccc(-n4cccc4)cc3)no2)cc1 (stereo unspecified) -29.1%, CNS(=O)(=O)c1cn(CC(=O)N2CCN(c3ccccc3F)CC2)cc1S(=O)(=O)NC 2.61%, COC(=O)Nc1nc2ccc(C(=O)C3CC3)cc2[nH]1 -12.8%, Cc1ccc(CN(Cc2ccco2)C(=O)COc2ccccc2C)cc1 -6.81%, CCOC(=O)c1ccc(NC(=O)CCc2c(C)nc3c(c(C)nn3-c3ccccc3)c2C)cc1 -19.4%, COc1cccc(C2=C(C(C)=O)Sc3nncn3N2C(C)=O)c1 -18.2%, OC(CCN1CCCCC1)(c1ccccc1)C1CC2C=CC1C2 (stereo unspecified) -9.76%, COc1ccc(NC(=O)C(c2ccc(C)cc2)N(C)C(=O)/C=C\c2ccc3c(c2)OCO3)cc1 (stereo unspecified) -10.4%, O=S(=O)(NCc1csc(-c2ccccc2)n1)c1cccc(F)c1 -8.56%, CC(=O)c1ccc(NC(=O)CCc2c(C)nc3c(c(C)nn3-c3ccc(C)cc3)c2C)cc1 -11.5%, COc1ccccc1NC(c1ccc(Cl)cc1)c1nnc(-c2cccc(F)c2)o1 (stereo unspecified) -10.1%, O=C(Cn1c(SCc2cccc(F)c2)nc2cccnc21)Nc1ccc(F)c(Cl)c1 -5.28%, O=C(COc1ccccc1Cl)Nc1cc(-c2ccccc2F)nn1-c1ccccc1 -3.88%, CC(C)(C)c1ccc(Cn2c(Cc3ccccc3)nc3ccccc32)cc1 -20.1%, Cc1nn2c(=O)cc(CN(C)c3ccccc3)nc2s1 -7.6%, CCOc1ccc(-c2nonc2NC(=O)c2oc3ccc(F)cc3c2C)cc1 -6.27%, COc1ccc(C2c3c(oc4ccccc4c3=O)C(=O)N2Cc2ccc3c(c2)OCO3)cc1 (stereo unspecified) -14.5%, COC(=O)c1ccccc1NC(=O)C1=CC(c2ccc(C)cc2)=NS(=O)(=O)N1C -6.71%, O=C(CCS(=O)(=O)c1nc(-c2cccs2)cc(C(F)(F)F)n1)Nc1ccc(OC(F)(F)F)cc1 3.59%, Cc1cc(C)cc(NC(=O)CN(c2cc(C(F)(F)F)ccc2Cl)S(=O)(=O)c2ccccc2)c1 -3.8%, COc1cccc(-c2nn(C)c3sc(C(=O)NCc4cc(OC)ccc4OC)cc23)c1 -18.6%, O=C(CN1CCN(Cc2ccc(F)cc2)C1=O)NCc1ccccc1Cl -5.19%, CCN(CC)CCSC(=O)C(c1ccccc1)c1ccccc1 -11.7%, COc1ccc(OC)c(NC(=O)c2cc3c(n(-c4ccc(Cl)cc4)c2=O)CC(C)(C)CC3=O)c1 -13.6%, Cc1nn2c(-c3cccc(NC(=O)c4ccccc4)c3)nnc2c2ccccc12 -20.5%, COc1ccc(CNC(=O)c2ccc(N3CCCC3)c(NC(=O)NCc3ccc(C)cc3)c2)cc1 -19.8%, CC(C)c1ccc(OCC(=O)NC(Cc2c[nH]c3ccccc23)C(=O)O)cc1 (stereo unspecified) -14.9%, CCOC(=O)c1c(C)oc2ccc(N(C(=O)Oc3ccccc3)S(=O)(=O)c3ccc(CC)cc3)cc12 -42.9%, COc1ccc(CCNC(=O)c2ccc3c(c2)N(Cc2c(F)cccc2Cl)C(=O)CS3)cc1OC -7.69%, Cc1cccc(OC(=O)CSc2nnc(CNC(=O)c3ccccc3)o2)c1C -7.56%, O=C(Nc1ccc(F)cc1)c1oc2ccccc2c1NC(=O)C12CC3CC(CC(C3)C1)C2 -3.02%, O=C(Nc1cc(Cl)cc(Cl)c1)c1ccc(F)c(S(=O)(=O)N2CCc3ccccc32)c1 -46.8%, O=C(Cc1ccccc1)N(Cc1cccnc1)c1nc2c(F)cc(F)cc2s1 -34.9%, COc1ccc(-c2cn3c(n2)sc2cc(C(=O)Nc4ccc(C)c(C)c4)ccc23)cc1 -14.2%, COc1ccc(-c2cc(C)no2)cc1S(=O)(=O)N1CCOc2ccccc21 -5.45%, Cc1cccc(N2CCN(C(=O)CCc3nnc4n(CC(C)C)c(=O)c5ccccc5n34)CC2)c1C -17.7%, Cc1ccc(-n2c(SCc3cccc(F)c3)nc3[nH]ncc3c2=O)cc1C -11.7%, COc1cc(OC)c(OC)cc1/C=C/c1nc2cc3ccccc3cc2c(=O)n1-c1ccc(F)cc1F -20.9%, Cc1ccc2c(c1)-c1cc(C)nn1C(c1cc(Br)ccc1O)N2 (stereo unspecified) -12.7%, COc1ccc(C2CC(=O)c3cc(-c4nc(-c5ccc(Cl)cc5)c(C)s4)c(=O)[nH]c3C2)cc1 (stereo unspecified) -13.4%, COc1ccc(NC(=O)C(C)n2nc(-c3ccc(C)c(C)c3)ccc2=O)cc1OC (stereo unspecified) -15.1%, CCc1nnc(SCc2cc(C)ccc2C)c2cc3sc(C)cc3n12 3.7%, COc1cccc(NC(=O)CSC2=Nc3ccccc3C3=NC(CC(=O)NC4CCCCC4)C(=O)N23)c1 (stereo unspecified) -8.87%, CCOC(=O)c1c(C)[nH]c(C)c1S(=O)(=O)N1CCC(C(=O)N2CCN(c3ccccc3F)CC2)CC1 -16.7%, CCc1ccc(CNC(=O)c2ccc(NC(=O)N3CC(C)Sc4ccccc43)cc2)cc1 (stereo unspecified) -5.24%, Cc1cc(C)c2c(=O)cc(C(=O)Nc3ccccc3C(F)(F)F)oc2c1 -17.3%, CC(=O)c1ccc(N2CCN(c3ccc(NC(=O)c4ccc(F)cc4)cc3C(=O)O)CC2)cc1 -11.4%, CC(C)(C)c1ccc(C(=O)NCC(c2cccs2)S(=O)(=O)c2ccccc2)cc1 (stereo unspecified) 0.248%, Cc1cc(NC(=O)CCS(=O)(=O)c2cc3c4c(c2)CCN4C(=O)CC3)ccc1Br -15.2%, O=S(=O)(Nc1nc2n(n1)C(c1ccc(F)cc1)C=C(c1ccccc1)N2)c1ccccc1 (stereo unspecified) -11%, Cc1ccc2ncc(C(=O)Nc3ccc(F)cc3F)c(=O)n2c1 -6.69%, COC(=O)c1ccc2c(=O)n(CCCCCC(=O)NCc3ccc(Cl)cc3)c(=O)[nH]c2c1 -37.4%, O=C(CCS(=O)(=O)c1cc(Br)cc2c1N(C(=O)C1CC1)CC2)NCc1ccc(Cl)cc1 -9.32%, Cc1ccc(CSc2cn(CC(=O)N3CCCC3)c3ccccc23)cc1 -12.7%, CCn1c(=O)sc2cc(NS(=O)(=O)c3ccc(F)c(C)c3)ccc21 -24.1%, CN(C(=O)c1cc2nc(-c3ccco3)cc(C(F)(F)F)n2n1)c1ccc(OC(F)(F)Cl)cc1 3.64%
